In paper PMC12136788 one finds binding signal data, which are given here for 22 molecules.

T1: UNK ZnF1-3 (human, UniProt Q9C0B0 31-174)
T1 sequence: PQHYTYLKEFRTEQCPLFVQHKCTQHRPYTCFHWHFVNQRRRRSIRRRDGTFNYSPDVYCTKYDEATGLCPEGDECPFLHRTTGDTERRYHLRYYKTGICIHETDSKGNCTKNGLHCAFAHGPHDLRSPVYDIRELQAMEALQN

B1: chr7:141438946:141438947:+_ENSG00000106028_ENST00000265304|hu_mus|hu_hu_hu_mus_True|18_108 (ssRNA)
RNA: GGGAGUUCUACAGUCCGACGAUCGACUACCUGUAAUUAACACAGGUCUUCGAAACAUGGCUUCUGUUUUUCUUACAACCUAAUCUUUAGGCUUUUCCUAAAGGAAAGAAAGAAAAGGCCCAGCCACUAAAUCAAGAAACUACACAACAGAGGAUUGAGCAUCA
B2: chr3:19126987:19126988:-_ENSMUSG00000069094_ENSMUST00000091314|mus_hu|motif|central (ssRNA)
RNA: GGGAGUUCUACAGUCCGACGAUCUAAAAAAAAUUGCAUUGCCAAACGGCACUGGAGUGAAAGCUUGGCGGUACUCGGCGAUAAAUGCUCAGUUUCCAGUGCAUGAAAUAAAACUAUAGCAAAUGGGAGGCUUUGGUGGCAUCCCAACAGAGGAUUGAGCAUCA
B3: chr4:115894766:115894767:+_ENSMUSG00000028698_ENSMUST00000030464|mus_mus|FALSE|FALSE (ssRNA)
RNA: GGGAGUUCUACAGUCCGACGAUCUCCACACGGAAAUGUACUUGGGGGUUUCCAACGGCCAGUACAAGUCCAGCCAAACUACUAGGAUGAGGACAAGGUCCUCCUCUUCUCUCCUCCUAAAGCACCCAACAAAAUACCCCGAACCAACAGAGGAUUGAGCAUCA
B4: chrX:100667754:100667755:+_ENSG00000126945_ENST00000316594|hu_mus|motif|central (ssRNA)
RNA: GGGAGUUCUACAGUCCGACGAUCUCCAUAUCUAUGAUCAGACAUUCCUGAGAAACAGUAGUUUAGGUCUCUUCCAAAUCGGUCAGACCCAAAACCAUACCCGUCAUUAUAACCUCCAUAGUCAUCAUAGCCUCCAUACCCUCCCAACAGAGGAUUGAGCAUCA
B5: chr1:245021434:245021435:-_ENSG00000153187_ENST00000283179|hu_hu|FALSE|FALSE (ssRNA)
RNA: GGGAGUUCUACAGUCCGACGAUCGAUGAAAGUAUACUCUUCAGGUAUUGGAAAAUAUGGCUUUUCCUUCUGACCAAAAUUAAAUUCAACUGCACAGUUGUGGCAGAGAACAUGCGGGAACAGUGGCCGUCCAGCAAGAACUUCCAACAGAGGAUUGAGCAUCA
B6: chr7:102944291:102944292:+_ENSG00000105819_ENST00000453466|hu_hu|FALSE|FALSE (ssRNA)
RNA: GGGAGUUCUACAGUCCGACGAUCGUUCAAUCUCUGCUUCUCCCAAUGUGCUGUUUUGUAUUAUAUCAGCAAGAAUUUCUACAGCUCUUGGCAAGUCUUUAGAGAAUGCUUUGGCAUAGUAUACAGUCUGCUCUCUGGAGGUAUCAACAGAGGAUUGAGCAUCA
B7: chr6:40197388:40197389:+_ENSMUSG00000057716_ENSMUST00000061740|mus_mus|mus_mus_mus_hu_False|28_88 (ssRNA)
RNA: GGGAGUUCUACAGUCCGACGAUCGAGACACUGGGGUGGAUUUAUUCUCAGUUUGGGUGGGUGCUAGCCACUAAGACUGUUAUUUUGGGAUUCAUGGCCUUGAAUAUCAAGAGGAAAAGGAAGAGGAUGGAAAGAGUCAAGAGUCAACAGAGGAUUGAGCAUCA
B8: chr2:217001844:217001845:+_ENSG00000079246_ENST00000392132|hu_hu|hu_hu_hu_mus_False|28_68 (ssRNA)
RNA: GGGAGUUCUACAGUCCGACGAUCACCAACUUGAGGAUUAGAUCUUUUGUCAUAAGCAUAUCGGACGAUGGCCACCAUGUUUAACUCAUCCAAAGCAUGAACGAGAGAGGAAAGUGCAACAGCUGCCGCCUCAUCAUCCUUUGCCAACAGAGGAUUGAGCAUCA
B9: chr4:65274301:65274302:+_ENSMUSG00000051675_ENSMUST00000050850|mus_mus|FALSE|FALSE (ssRNA)
RNA: GGGAGUUCUACAGUCCGACGAUCGUGCAGCAGCUUGGGUCGCAGCUGCUCUUCAGUGAAGGACUCCAUGCAGAUGGGACAUUCUAGCACUUCCCGGAGGGCAUCCAGGUUCAGGUGAGAAGCUGCUGCAGCCGCAGCCAUUGCCAACAGAGGAUUGAGCAUCA
B10: chr8:95500983:95500984:-_ENSG00000164944_ENST00000437199|hu_hu|hu_hu_hu_mus_True|98_98 (ssRNA)
RNA: GGGAGUUCUACAGUCCGACGAUCAGAACACAUCUAUUCGUGUAAAGACCGUACAUGACGGCCUCUACCACUGCCUCCACUAACAAACUUUCCUCUCGAGCCUCCACUGCCGCUAUUUGUACUAGCCCAGGACGGUCCCAGGCCCAACAGAGGAUUGAGCAUCA
B11: 120130817_120169532_478_3pUTR_ENSG00000163430_ENST00000295633|human|control|control (ssRNA)
RNA: GGGAGUUCUACAGUCCGACGAUCGAGGUUUGCAUUGCUCAAUGCAGAGACAGGUGGGUUCCCCUUUCUCUGUGACUGCACAUUCCCGGCCGGCUCCACAAAACACAUUGGCACAGAUCUUGGAUUUGCUCCUUAGCUCUUCCUCAACAGAGGAUUGAGCAUCA
B12: 32097623_32097985_2494_CDS_ENSG00000165322_ENST00000344936|human|control|control (ssRNA)
RNA: GGGAGUUCUACAGUCCGACGAUCUGGCAACUGUCUGAUUAGGUCCUUAACAGCAGCGACUCGCUGUCUUGGUUCUUGCUUAAUUGCAUUAACAAAAUCAUUAAAAUGAUUAAAUGUAAAAAGAGGUUCUGGUAAUUCUCGAAACAACAGAGGAUUGAGCAUCA
B13: chr8:117878989:117878990:-_ENSG00000164754_ENST00000297338|hu_hu|hu_hu_hu_mus_True|38_58 (ssRNA)
RNA: GGGAGUUCUACAGUCCGACGAUCCCAGAGGCCCUCGUUUACUGAGGACAAAAUGUGCGUAGAACAUUUUUCUUAUUGGCUAUGAAAUAAGAAGAAAACCUUGCUCUGGCGGGGAGCCGGGAGGGGUGGGUGGCCCGGGGAGGGCAACAGAGGAUUGAGCAUCA
B14: 183621111_183622453_1677_3pUTR_ENSG00000077232_ENST00000418559|human|control|control (ssRNA)
RNA: GGGAGUUCUACAGUCCGACGAUCUCUAUACUGCCCACGUUGAUCAGUCCAGUUAAUGUCCGGGCCAUUCUUUUCCAUUCUGGCAUUAAGACUUGGCAAGGAUGACACCACGGAGAAUAGAAAUCAACCAUCCAGACUUCGUUGCAACAGAGGAUUGAGCAUCA
B15: chr1:137268451:137268452:-_ENSMUSG00000041889_ENSMUST00000041240|mus_hu|FALSE|FALSE (ssRNA)
RNA: GGGAGUUCUACAGUCCGACGAUCGGGGCCUGGUGGCUGGAGGACUCCUGCCACCCCCAGGACCAGAUGCAGGUACAGGAUGAGGGCAUCUCCCAAGGUUGGCAUCACUGAAGGGGCAGCAGAGACAUGGCUGGUUCCUCAGGCCAACAGAGGAUUGAGCAUCA
B16: 59925189_59925309_2213_CDS_ENSG00000134444_ENST00000256858|human|control|control (ssRNA)
RNA: GGGAGUUCUACAGUCCGACGAUCGUCUGGAUCAUCAAUGUAUCCCAUAAUGAUACCAAGGCUUUUGAUAACAGCUUCUCUUACCAAAUCUGCCUUAUCUUCCAUUAACAUUUGUUGCAACAUUGAAAGAACCAAGGAGCUACGCAACAGAGGAUUGAGCAUCA
B17: chr2:144079538:144079539:-_ENSMUSG00000027423_ENSMUST00000110030|mus_mus|FALSE|FALSE (ssRNA)
RNA: GGGAGUUCUACAGUCCGACGAUCGGCCUUGUCCAAAGCUUUGUUUGAAUUCUCAUAGUCAAUUAGGGCUUUGGUACGUCUAUACAAGAGAUCCUUUGCAGCCUCUAUGUUGAGCAUGUAGUAUCGGAGGAGCUCUGUCAGUUUCAACAGAGGAUUGAGCAUCA
B18: chr9:95013113:95013114:-_ENSG00000196305_ENST00000443024|hu_hu|hu_hu_hu_mus_False|18_68 (ssRNA)
RNA: GGGAGUUCUACAGUCCGACGAUCCUCAGUCAGAAAGGGCGUGUAAGGGGCCAUCAGUCUGCACAGAGAAAGCAGAACACUGAACAGUGUCUCCAGAGCCAUGACACAGUCUUCCACCCCAUUUUCACCCUUUAACCUCCUCCUCAACAGAGGAUUGAGCAUCA
B19: chr4:9557972:9557973:-_ENSMUSG00000028207_ENSMUST00000146441|mus_mus|FALSE|FALSE (ssRNA)
RNA: GGGAGUUCUACAGUCCGACGAUCACCAUCAACACCAUCUGCAGUUUCGCUUUCUUCUUCCUCUUCUUCUAGCAUUUCAAAAGGAGUCAUUAUAUCAUAGAGAAAUGAGAGGAAACCAUAAAACCAAUCUGAACUCUCCUCCGCCAACAGAGGAUUGAGCAUCA
B20: chr16:29649037:29649038:+_ENSMUSG00000038084_ENSMUST00000160597|mus_hu|FALSE|FALSE (ssRNA)
RNA: GGGAGUUCUACAGUCCGACGAUCUUUAAUUUAUUUCUCCUGAUGAAGAGCUUCAAUGAAAGCAUCAAGUUUUUCUUGAAUUUCUCUAACUUUCUUGAGGUCUUCCGCCAGUUGAACGCGUUUACCAGUAAGCAAUUUAAUCUUCAACAGAGGAUUGAGCAUCA
B21: chr3:57569700:57569701:-_ENSG00000168374_ENST00000303436|hu_hu|motif|central (ssRNA)
RNA: GGGAGUUCUACAGUCCGACGAUCCACAAAAAUAAGACCCUGGGUAUUCUGGAAGUAAUGCUUCCAGAGAGGCCUAAUUCGGUCUUGACCACCAACAUCCCAUACUGUGAAACAAAUGUUCUUAUAUUCUACUGUUUCCACAUUCAACAGAGGAUUGAGCAUCA
B22: chr4:17845017:17845018:+_ENSG00000109805_ENST00000514176|hu_mus|hu_hu_hu_mus_False|8_28 (ssRNA)
RNA: GGGAGUUCUACAGUCCGACGAUCGCUCUCUUAACUUGUAUCUUCAUUAAGGAACUCUGCAAGGUUAAGUUUACUUUUCUGUAGCGCAGCUGUUUUGGCUCGUCUGGUAGUCUCAUCCUUCAUUUCUAUUCUGGUUCCAUGAUCCAACAGAGGAUUGAGCAUCA

The list shows a part of the results.

In the test the target is T1, UNK ZnF1-3. Nature of the test: nsRBNS (natural sequence RNA bind-n-seq); RBNS binding buffer (assumed for nsRBNS): 25 mM Tris pH 7.5, 150 mM KCl, 3 mM MgCl2, 0.01% Triton X-100, 500 ug/ml BSA, 20 U/ml SUPERase-In, 4 C; UNK is unkempt and MSI1 is Musashi-1; names of the RNAs are library labels; protein concentration not given here; high values mean tight binding.
B1 had a binding signal of 0.545 enrichment R.

B2 yielded a binding signal of 1.13 enrichment R.

The molecule B3 showed a binding signal of 1.24 enrichment R.

B4 returned a binding signal of 0.986 enrichment R.

B5 came in with a binding signal of 0.665 enrichment R.

B6: the binding signal was found to be 0.984 enrichment R.

In the case of B7, the binding signal was determined as 1.74 enrichment R.

The molecule B8 gave a binding signal of 1.6 enrichment R.

Turning to B9, the binding signal was 0.633 enrichment R.

B10 yielded a binding signal of 0.956 enrichment R.

Molecule B11 gave a binding signal of 0.615 enrichment R.

For the molecule B12, the binding signal was determined as 0.936 enrichment R.

Take B13: the binding signal worked out at 1.41 enrichment R.

B14 registered a binding signal of 0.729 enrichment R.

As to B15, the binding signal was found to be 2.43 enrichment R.

As to B16, the binding signal came out at 0.769 enrichment R.

As for B17, the binding signal was 1.07 enrichment R.

Molecule B18 came in with a binding signal of 1.2 enrichment R.

As to B19, the binding signal turned out to be 1.73 enrichment R.

Turning to B20, the binding signal was 0.6 enrichment R.

In turn, B21 showed a binding signal of 0.619 enrichment R.

On to B22, for which the binding signal came to 0.393 enrichment R.
